Test results taken from the supplement of paper PMC10126150.
Sequences with one replicate were seen in a single cluster, so their values are uncertain.

Tested on: ATP
Assay: switch fluorescence ratio, 500 uM ATP over buffer (Cy3 cluster intensity, sum of 5 cycles each) (fold (ratio)); higher = stronger signal-on switching upon ATP binding; sequences stand for … in TCGTCGGCAGCGTCAGATGTGTATAAGAGACAGTTTTTTTTTTTTTTTTTTTTTTTTT…TC
Conditions: aptamer strand: ATP DNA aptamer (quencher-CACCTGGGGGAGTATTGCGGAGGAAGG + anchor), 100 nM annealed; ATP concentration: 500 uM; one replicate
In short: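 Five buffer/ATP imaging cycles were run on Cy3-labelled switching-strand clusters on a modified Illumina MiSeq flow-cell, with NaOH stripping and re-annealing between cycles. In each cycle, clusters annealed to 100 nM quencher-labelled ATP aptamer were imaged in selection buffer, then after 15 min with 500 uM ATP at 22 °C. Per cluster, the fluorescence ratio is summed target-cycle over summed buffer-cycle Cy3 intensity, averaged per switch-domain sequence. Only clusters within 100-1000 RFU were kept.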
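Also: ATP exposure 15 min at 22 °C before imaging.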

Q: Which switch fluorescence ratio does the source give for GGCTTATCAT here?
A: 0.939

Q: How did the switch fluorescence ratio turn out when GGCTTCACAC was run?
A: 1.06

Q: How did the switch fluorescence ratio turn out when GGCTTCCTTT was run?
A: 1.18

Q: For GGCTTGGATC, which switch fluorescence ratio is on record?
A: 1.05

Q: For GGCTTGGTGC, which switch fluorescence ratio is on record?
A: 1

Q: With GGCTTGTTTG as the sequence, how does the switch fluorescence ratio read?
A: 1.01

Q: How did the switch fluorescence ratio turn out when GGCTTTATCC was run?
A: 1.02

Q: How did the switch fluorescence ratio turn out when GGCTTTCAGG was run?
A: 0.991

Q: For GGGAAAGTAC, which switch fluorescence ratio is on record?
A: 1.29

Q: How did the switch fluorescence ratio turn out when GGGAAATGGA was run?
A: 0.987

Q: GGGAACGAAT was tested. Which switch fluorescence ratio did it give?
A: 1.03

Q: How did the switch fluorescence ratio turn out when GGGAACGTGC was run?
A: 1.08

Q: Which switch fluorescence ratio does the source give for GGGAATTGAT here?
A: 1.04

Q: GGGACACCAA was tested. Which switch fluorescence ratio did it give?
A: 1.08

Q: For GGGACACTTA, which switch fluorescence ratio is on record?
A: 1.03

Q: Which switch fluorescence ratio does the source give for GGGACAGGAT here?
A: 1.01

Q: For GGGACAGTAA, which switch fluorescence ratio is on record?
A: 1.02

Q: How did the switch fluorescence ratio turn out when GGGACATTA was run?
A: 1.04

Q: Which switch fluorescence ratio does the source give for GGGACCAGTG here?
A: 1.05

Q: For GGGACCAGTT, which switch fluorescence ratio is on record?
A: 0.994

Q: Which switch fluorescence ratio does the source give for GGGACGCTTA here?
A: 1.05

Q: How did the switch fluorescence ratio turn out when GGGACGGGCC was run?
A: 1.01

Q: How did the switch fluorescence ratio turn out when GGGACGTAAT was run?
A: 1

Q: With GGGACTGTTG as the sequence, how does the switch fluorescence ratio read?
A: 0.992

Q: GGGAGCGGCA was tested. Which switch fluorescence ratio did it give?
A: 1.01

Q: With GGGAGGAACG as the sequence, how does the switch fluorescence ratio read?
A: 0.948

Q: For GGGAGGGTAC, which switch fluorescence ratio is on record?
A: 1.48

Q: Which switch fluorescence ratio does the source give for GGGAGTCCAC here?
A: 1.04

Q: GGGAGTCTTT was tested. Which switch fluorescence ratio did it give?
A: 0.962

Q: How did the switch fluorescence ratio turn out when GGGATAATGT was run?
A: 1.01

Q: GGGATATGCG was tested. Which switch fluorescence ratio did it give?
A: 1.01

Q: GGGATATTAT was tested. Which switch fluorescence ratio did it give?
A: 0.977

Q: For GGGATCCTAG, which switch fluorescence ratio is on record?
A: 1.01

Q: GGGATCTCGT was tested. Which switch fluorescence ratio did it give?
A: 1.02

Q: GGGATCTTAT was tested. Which switch fluorescence ratio did it give?
A: 0.963

Q: For GGGATCTTGG, which switch fluorescence ratio is on record?
A: 0.987

Q: How did the switch fluorescence ratio turn out when GGGATGGAAA was run?
A: 0.997

Q: For GGGATGGTGA, which switch fluorescence ratio is on record?
A: 1.01

Q: GGGATGTCAG was tested. Which switch fluorescence ratio did it give?
A: 1.03

Q: How did the switch fluorescence ratio turn out when GGGATGTCCT was run?
A: 0.989

Q: With GGGATTAGGC as the sequence, how does the switch fluorescence ratio read?
A: 1.03

Q: Which switch fluorescence ratio does the source give for GGGATTCAGC here?
A: 1.01

Q: With GGGATTGATA as the sequence, how does the switch fluorescence ratio read?
A: 1.05

Q: How did the switch fluorescence ratio turn out when GGGATTGTCC was run?
A: 0.996

Q: Which switch fluorescence ratio does the source give for GGGATTGTTC here?
A: 0.966

Q: With GGGATTTCTT as the sequence, how does the switch fluorescence ratio read?
A: 0.962

Q: With GGGCAAGCTC as the sequence, how does the switch fluorescence ratio read?
A: 1.26

Q: GGGCACCCAG was tested. Which switch fluorescence ratio did it give?
A: 1.03

Q: How did the switch fluorescence ratio turn out when GGGCATCCAC was run?
A: 1.05

Q: For GGGCATGCAC, which switch fluorescence ratio is on record?
A: 0.974

Q: For GGGCATGTCA, which switch fluorescence ratio is on record?
A: 1.03

Q: How did the switch fluorescence ratio turn out when GGGCATTAAC was run?
A: 1.12

Q: With GGGCCA as the sequence, how does the switch fluorescence ratio read?
A: 0.945

Q: GGGCCACTTA was tested. Which switch fluorescence ratio did it give?
A: 1.12

Q: Which switch fluorescence ratio does the source give for GGGCCCAGGT here?
A: 1.24

Q: For GGGCCGCAGG, which switch fluorescence ratio is on record?
A: 0.984

Q: How did the switch fluorescence ratio turn out when GGGCCGCGTC was run?
A: 2

Q: How did the switch fluorescence ratio turn out when GGGCCGGGCA was run?
A: 1.02

Q: For GGGCCTAGGT, which switch fluorescence ratio is on record?
A: 0.992

Q: For GGGCCTAT, which switch fluorescence ratio is on record?
A: 1.02

Q: With GGGCCTATGA as the sequence, how does the switch fluorescence ratio read?
A: 0.998

Q: How did the switch fluorescence ratio turn out when GGGCCTTCTG was run?
A: 1.03

Q: Which switch fluorescence ratio does the source give for GGGCCTTGTT here?
A: 1.01

Q: For GGGCGACCCA, which switch fluorescence ratio is on record?
A: 1.05

Q: For GGGCGATTGG, which switch fluorescence ratio is on record?
A: 0.974

Q: GGGCGCCTTA was tested. Which switch fluorescence ratio did it give?
A: 0.989

Q: Which switch fluorescence ratio does the source give for GGGCGGATCG here?
A: 1.03

Q: For GGGCGTAAAC, which switch fluorescence ratio is on record?
A: 1.13

Q: GGGCGTTCCG was tested. Which switch fluorescence ratio did it give?
A: 1

Q: With GGGCGTTGAA as the sequence, how does the switch fluorescence ratio read?
A: 0.989

Q: Which switch fluorescence ratio does the source give for GGGCTCGCAC here?
A: 1.14

Q: With GGGCTGACCC as the sequence, how does the switch fluorescence ratio read?
A: 0.974

Q: GGGCTGGCAA was tested. Which switch fluorescence ratio did it give?
A: 1.1

Q: GGGCTTAGCT was tested. Which switch fluorescence ratio did it give?
A: 1.05

Q: With GGGCTTGCGG as the sequence, how does the switch fluorescence ratio read?
A: 0.962

Q: With GGGGAAACTC as the sequence, how does the switch fluorescence ratio read?
A: 2.37

Q: For GGGGAAGACC, which switch fluorescence ratio is on record?
A: 0.951

Q: How did the switch fluorescence ratio turn out when GGGGAATTCT was run?
A: 0.971

Q: With GGGGACGAAC as the sequence, how does the switch fluorescence ratio read?
A: 1.24

Q: How did the switch fluorescence ratio turn out when GGGGACGTAA was run?
A: 1.12

Q: Which switch fluorescence ratio does the source give for GGGGACTTCT here?
A: 0.997

Q: For GGGGAGCAAC, which switch fluorescence ratio is on record?
A: 1.23

Q: GGGGAGCCGA was tested. Which switch fluorescence ratio did it give?
A: 1.02

Q: With GGGGAGCGG as the sequence, how does the switch fluorescence ratio read?
A: 1.02

Q: GGGGAGCTAG was tested. Which switch fluorescence ratio did it give?
A: 0.942
